From the RNAGym collection of RNA variant scans (doi:10.7554/elife.90254) come the findings set out here.

The source gives no read counts; variants with many changes may rest on few reads.

To fix the notation:
B1: LINE1-full (parent)
chain: UACGUAGGUGGUUUUCCCCUGAUAGUGCUAAGGGGGCCUGGAAGUUUGGACUGGGCAGAGCUCAACACAGCGUGGCAAAGUGGCUGUGGCUAGACUGCCUCUCUGGAUUCCUCGUCACUCAGCAGGGCAUCUCUGAGAGAAAUGCC

In the data set the parent is B1. As to the kind of experiment: self-cleavage, relative activity (ratio to wild type); higher = more cleavage; in vitro, sequencing; the parent is a self-cleaving ribozyme.
As for UACGUAGGUGGUUUUCCCCUGAUAGUGCUAUGGGGGCCUGGAGGGUUGGACUGGGCAGAGCUCAACACAGCGUGGCAAAGUGGCUGUAGCUAGACUGCCUCUCUGGAUUCCUCGUCACUCAGCAGGGCAUCUCUGAGAGAAAUGCC, the self-cleavage worked out at 0.03.

As for UACGUAGGUGGUUUUCCCCUGAUAGUGCUAUGGGGGCCUGGAGGUUUGGACUGGGCAGAGCUCAACUCAGCGUGGCAAGGUGGCUGUGGCUAGACUGCCUCUCUGGAUUCCUCGUCACUCAGCAGGGCAUCUCUGAGAGAAAUGCC, the self-cleavage came out at 0.32.

As to UACGUAGGUGGUUUUCCCCUGAUAGUGCUAGGGGGGCCUGGAAGUUCGGACUGGGCGGAGCUCUACACAGCGUGGCAAAGUGGCUGUGGCUAGACUGCCUCUCUGGAUCCCUCGUCACUCAGCAGGGCAUCUCUGAGAGAAAUGCC, the self-cleavage worked out at 1.

As for UACGUAGGUGGUUUUCCCCUGAUAGUGCUAUGGGGGCCUGGUAGUUUGGACUGGGCAGAGCUCAACACAGCAUGGCAAAGUGGCUGUGGCUAGACUGCCUCUCUGGAUUCCUCGUCACUCAGCAGGGCAUCUCUGAGAGAAAUGCC, the self-cleavage was determined as 1.12.

Turning to UACGUAGGUGGUUUUCCCCUGAUAGUGCUAUGGGGGCCUGGAAGUUUGGACUGGGCGGAGCUCAACACAGCGUGGCAAAGUGGCUGCGGCUAGACUGCCUCUCUGGAUUCCUCGUCACUCAGCAGGGCAUCUCUGAGAGAAAUGCC, the self-cleavage amounted to 1.02.

On to UACGUAGGUGGUUUUCCCCUGAUAGUGCUAGGGGGGCCUGGAAGUUUGGACUGGGCAGAGCUCAACACAGCGUGGCAAAGUGGCUGUGGCUAGACUGCCUCUCUGGAUUCCUCGUCACCCAGCGGGGCAUCUCUGAGAGAAAUGCC, for which the self-cleavage was 0.

For the variant UACGUAGGUGGUUUUCCCCUGAUAGUGCUAUGGGGGGCUGGAAGUUUGGACCGGGCAGGGCUCAACACAGCGUGGCAAAGUGGCUGUGGCUAGACUGCCUCUCUGGAUUCCUCGUCGCUCAGCAGGGCAUCUCUGAGAGACAUGCC, the self-cleavage was 0.

With UACGUAGGUGGUUUUCCCCUGAUAGUGCUAGGGGGGCCUGGAAGUUUGGACUGGGCAGAGCACAACACAGCGAGGCAAAGUGGCUGUGGCCAGACUGCCUCUCAGGAUUCCUCGUCACUCAGCAGGGCAUCUCUGAGAGAAAUGCC, the self-cleavage was found to be 0.17.

In the case of UACGUAGGUGGUUUUCCCCUGAUAGUGCUAGGGGGGCCUGGAAGUUUGGACUGGGCAGAGCUCAACACAGCGUGGCAAAGUGGCUGUGGCUAGACUGCCUCUCCGGAUUCCUCGUCACUCAGCUGGGCAUCUCUGAGAGAAACGCC, the self-cleavage came to 0.98.

On to UACGUAGGUGGUUUUCCCCUGAUAGUGCUAUGGGGGCCUGGAAGUUUGGACUGGGCAGAGCUCAGCACAGCGUGGCAGAGUGGCUGUGGCUAGACUGCCUCUCUGGAUUCCUCGUCACUCAGCAGGGCAUCUCUGAGGGAAAUGCC, for which the self-cleavage amounted to 0.54.

As to UACGUAGGUGGUUUUCCCCUGAUAGUGCUAUGGGGGCCUGGGAGUUUGGACUGGGCAGAGCUCAACACAGCGUUGCAAAGUGGCUGUGGCUAGACUGCCUCUCUGGAUUCCUCGUCACUCAGCAGGGCAUCUCUGAGAGAAAUGCC, the self-cleavage was determined as 1.13.

As to UACGUAGGUGGUUUUCCCCUGAUAGUGCUAGGGGGGCCUGGAAGUUUGGACUGGGCAGAGCUCAACACAGCGAGGCAAAGCGGCUGUUGCUAGACUGCCUCUCUGGAUUCCUCGUCACUCAGCAGGGCAUCUCUGAGAGAAAUGCC, the self-cleavage came out at 0.

For the variant UACGUAGGUGGUUUUCCCCUGAUAGUGCUAGGGGGGCCUGGAAGUUCGGACUGGGCAGAGCUCAACACAGCGUGGCAAAGUGGCUGUGGCUAGACUGCCUCUCUGGAUUCCUCGUCACUCAGCAUGGCAUCUCUGAGAGAAAUGCC, the self-cleavage was 1.38.

For UACGUAGGUGGUUUUCCCCUGAUAGUGCUAUGGGGGCCUGGAAGUUUGGACUGGGCAGAGCUCAACACUGCGUGGCAAAGUGGCUGUGGCUAGACUGCCCCUCUGGAUUCAUCGUCACUCAGCAGGGCAUCUCUGAGAGAAGUGCC, the self-cleavage came out at 0.06.

In the case of UACGUAGGUGGUUUUCCCCUGAUAGUGCUAUGGGGGCCUGGAAGUUUGGACUGGGCAGAGCUCUACACAGCGUGGCAAAGUGGCUGUGGCUAGACUGCCUCUCUGGACUCCUCGUCACUCAGCAGGGCAUCUCCGAGAGAAAUGCC, the self-cleavage turned out to be 1.01.

As to UACGUAGGUGGUUUUCCCCUGAUAGUGCUAGGGGGGCCUGGAAGUUAGGACUGGGCAGAGCUCAACACAGCGUGGCAAAGUGGCUGUGGCUAGACUGCCUCUCUGGAUUCCUCGUCACUCAGCAGGGCACCUCUGAGAGAAAUGCC, the self-cleavage was determined as 0.95.

On to UACGUAGGUGGUUUUCCCCUGAUAGUGCUAGGGGGGCCUGGAAGUUUGGACCGGGCAGAGCUCAACACAGCGUGGCAAAGUGGCUGUGGCUAGACUGCCUCUCUGGAUUCCUCGUCACUCUGCAGGGCACCUCUGAGAGAAAUGCC, for which the self-cleavage stood at 0.

Take UACGUAGGUGGUUUUCCCCUGAUAGUGCUAUGGGGGCCUGGAAGUUUGGACUGGGCAGAGCUCAACACAGCGUGGCAGAGUGGCUGUGGCUAGACUGCCUCUCAGGAUUCCUCGUCACUCAGCAGGGCAUCUCUGAGAGAAAUGCC: the self-cleavage was 0.84.

For UACGUAGGUGGUUUUCCCCUGAUAGUGCUAGGGGGGCCUGGAAGUUUGGACUGGGCAGAGCUCAACACAGCGUGGCAAAGUGGCUGUGGCCAGUCUGCCUCUCUGGAUUCCUCGUCACUCAGCAGGGCAUCUCUGAGAGAAAUGCC, the self-cleavage worked out at 0.27.

In the case of UACGUAGGUGGUUUUCCCCUGAUAGUGCUAUGGGGGCCUGGAGGUUUGGACAGGGCAGAGCUCAACACAGCGUGGCAAAGUGGCUGUGGCUAGGCUGCCUCUCUGGAUUCCUCGUCACUCAGCAGGGCAUCUCUGAGAGAAAUGCC, the self-cleavage turned out to be 0.39.
